Variants at the background level are over-represented here.
B1: tRNA (parent)
chain: CUCUCGGUAGCCAAGUUGGUUUAAGGCGCAAGACUUUAAUUUAUCACUACGAAAUCUUGAGAUCGGGCGUUCGACUCGCCCCCGGGAGAUUUUUUCCUCGAGCAA

Variants of: B1
Test: nonsense suppression (GFP-seq) (ratio to wild type); higher = more function; SUP4oc tRNA, yeast GFP reporter sort-seq
How it was run: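 Yeast were grown in raffinose/galactose medium with 80 mg/L adenine, each strain bearing a genome-integrated ochre-suppressor tRNA variant from a ~3% random-mutation library, a galactose-driven GFP ochre reporter, and RFP. After sorting into GFP/RFP bins, every bin was sequenced on an Illumina platform at phred ≥30. The GFPSEQ value, a measure of nonsense suppression, is the weighted bin median GFP/RFP relative to the unmutated parent tRNA, using each variant's estimated cell share per bin as the weight. Only variants with ≥100 reads and ≥30 cells were included.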

| Variant | nonsense suppression |
| --- | --- |
| C1U A14U U21G G26U A62G G69A | ≤ 0.026 |
| C1U A23G U63A | ≤ 0.026 |
| C1U A23U | ≤ 0.026 |
| C1U A23U C79G A89C | ≤ 0.026 |
| C1U A24G | ≤ 0.026 |
| C1U A24U A89U | ≤ 0.026 |
| C1U A30C | ≤ 0.026 |
| C1U A30C G65A C80G | ≤ 0.026 |
| C1U A30C U57C G61A G84C G88C | ≤ 0.026 |
| C1U A30G C56G G73C G88C | ≤ 0.026 |
| C1U A30G U57A | ≤ 0.026 |
| C1U A30U | ≤ 0.026 |
| C1U A31C | ≤ 0.026 |
| C1U A31C A62U A74C | ≤ 0.026 |
| C1U A31C A87U | ≤ 0.026 |
| C1U A31C A89U | ≤ 0.026 |
| C1U A31U | ≤ 0.026 |
| C1U A33G G67U U76A | ≤ 0.026 |
| C1U A33G U35A G61A G66C | ≤ 0.026 |
| C1U A33G U55A A62U U63A | ≤ 0.026 |
| C1U A54U A74G | ≤ 0.026 |

| Variant | nonsense suppression |
| --- | --- |
| C1U A54U G88A | 0.209 |
| C1U A54U U58C G61A U70C | ≤ 0.026 |
| C1U A60C | ≤ 0.026 |
| C1U A87C | ≤ 0.026 |
| C1U C3G | ≤ 0.026 |
| C1U C3U C11G A31G | ≤ 0.026 |
| C1U C3U C12U | ≤ 0.026 |
| C1U C3U G67A A87C | ≤ 0.026 |
| C1U C5A C83A | ≤ 0.026 |
| C1U C5A U76A | ≤ 0.026 |
| C1U C5G G28A U35A C80U | ≤ 0.026 |
| C1U C5U A13C G88A | ≤ 0.026 |
| C1U C5U G15C A54G G61C G69A | ≤ 0.026 |
| C1U C11G A33G C56U C83G | ≤ 0.026 |
| C1U C11G C79U | ≤ 0.026 |
| C1U C11U A60U U76A G84U | ≤ 0.026 |
| C1U C11U G61A U63A U76G | ≤ 0.026 |
| C1U C11U G66A U70C | ≤ 0.026 |
| C1U C12G A24C | ≤ 0.026 |
| C1U C12G G32C A33G | ≤ 0.026 |
| C1U C12U A23U G65A C68U | ≤ 0.026 |

| Variant | nonsense suppression |
| --- | --- |
| C1U C27A A31C G61A | ≤ 0.026 |
| C1U C27A A89C | ≤ 0.026 |
| C1U C27G G67C G84C | ≤ 0.026 |
| C1U C27G G85U G88U | ≤ 0.026 |
| C1U C29G U70C | ≤ 0.026 |
| C1U C29U C34A U55C A62G G85C | ≤ 0.026 |
| C1U C34A A87C | ≤ 0.026 |
| C1U C34A G73C | ≤ 0.026 |
| C1U C34A U55C | ≤ 0.026 |
| C1U C56A U76C | ≤ 0.026 |
| C1U C64A C80G | ≤ 0.026 |
| C1U C72G G84U | ≤ 0.026 |
| C1U C77A G84U | ≤ 0.026 |
| C1U C79A A89G | ≤ 0.026 |
| C1U C81A | ≤ 0.026 |
| C1U C82U G86C | ≤ 0.026 |
| C1U C83U A89C | ≤ 0.026 |
| C1U G6A C64G | ≤ 0.026 |
| C1U G6U | ≤ 0.026 |
| C1U G6U U55G | ≤ 0.026 |
| C1U G7A G32A U35C G88U | ≤ 0.026 |

| Variant | nonsense suppression |
| --- | --- |
| C1U G7U G10C A13U G15U | ≤ 0.026 |
| C1U G7U G15A U35A A62G | ≤ 0.026 |
| C1U G10U | ≤ 0.026 |
| C1U G10U A24U G26U U70A | ≤ 0.026 |
| C1U G15A | ≤ 0.026 |
| C1U G15C G19A A87C | ≤ 0.026 |
| C1U G15C G26C | ≤ 0.026 |
| C1U G15U | ≤ 0.026 |
| C1U G15U G78U | ≤ 0.026 |
| C1U G15U U35G C77G G78A | ≤ 0.026 |
| C1U G18C C77G | ≤ 0.026 |
| C1U G18U G32U C82A C83A | ≤ 0.026 |
| C1U G19A A54C U70C | ≤ 0.026 |
| C1U G19A A62U G65U G88C | ≤ 0.026 |
| C1U G19C | ≤ 0.026 |
| C1U G19C A60G G66C | ≤ 0.026 |
| C1U G19C C56G | ≤ 0.026 |
| C1U G26A | ≤ 0.026 |
| C1U G26A A62C U70C G88U | ≤ 0.026 |
| C1U G26A G69U C79U | ≤ 0.026 |
| C1U G26C | ≤ 0.026 |

Reference: the RNAGym collection of RNA variant scans (doi:10.1101/gad.245936.114)
